Assay results as given in the supplement of paper PMC4967469.
The IC50 comes from the fitted curve, where viability falls to half of the control; a limit (>, <) means that the fit lies beyond the doses tested. AUC is the area under the same curve over the 256-fold range up to the top dose, as a fraction; it is 1 without any effect and falls as sensitivity rises. Where the top dose is marked as inferred, it was calculated from the reported fits. For some of these results: Drugs with an entry number were screened twice under separate entries, and the two screens often disagree.

How the values were obtained:
Assay in all cases: Viability of human cancer cell lines after 72 h of drug (GDSC screen)
BMS-536924 = compound: Cc1cc(N2CCOCC2)cc2[nH]c(-c3c(NC[C@@H](O)c4cccc(Cl)c4)cc[nH]c3=O)nc12 [BMS-536924]
Protocol: (§1)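 Human cancer cell lines in 384-well plates, medium with 10% serum, drug for 72 h over a 256-fold dose range (nine 2-fold or five 4-fold steps up to the top dose). Adherent lines were fixed and stained with the nucleic acid dye Syto60, suspension lines read with resazurin; signal relative to control wells, capped at 0 and 100%. One two-parameter sigmoid per drug and line, fitted in a mixed model over all curves with the slope shared within a line.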

A-770041 = compound: COc1cc(-c2nn([C@H]3CC[C@H](N4CCN(C(C)=O)CC4)CC3)c3ncnc(N)c23)ccc1NC(=O)c1cc2ccccc2n1C [A-770041]; conditions: top dose 5.12 µM; top dose inferred
Protocol: as §1

BIRB 0796 = compound: Cc1ccc(-n2nc(C(C)(C)C)cc2NC(=O)Nc2ccc(OCCN3CCOCC3)c3ccccc23)cc1 [BIRB 0796]; conditions: top dose 10 µM; top dose inferred
Protocol: as §1

Olaparib = compound: O=C(c1cc(Cc2n[nH]c(=O)c3ccccc23)ccc1F)N1CCN(C(=O)C2CC2)CC1 [Olaparib]
Protocol: as §1

SB-525334 = compound: Cc1cccc(-c2[nH]c(C(C)(C)C)nc2-c2ccc3nccnc3c2)n1 [SB-525334]; conditions: top dose 20 µM; top dose inferred
Protocol: as §1

Wee1 inhibitor 681640 = compound: O=C1NC(=O)c2c1c(-c1ccccc1Cl)cc1[nH]c3ccc(O)cc3c21 [Wee1 inhibitor 681640]; conditions: top dose 2 µM; top dose inferred
Protocol: as §1

CGP-082996 (CINK4) = compound: CCNc1cc(NC2CCC(O)CC2)nc(Nc2ccc3c(ccn3Cc3ccccc3)c2)n1 [CGP-082996 (CINK4)]; conditions: top dose 5.12 µM; top dose inferred
Protocol: as §1

VX-702 = compound: NC(=O)c1ccc(N(C(N)=O)c2c(F)cccc2F)nc1-c1ccc(F)cc1F [VX-702]; conditions: top dose 2 µM; top dose inferred
Protocol: as §1

Shikonin = compound: CC(C)=CC[C@@H](O)C1=CC(=O)c2c(O)ccc(O)c2C1=O [Shikonin]; conditions: top dose 16 µM; top dose inferred
Protocol: as §1

HG-5-113-01 = compound: CNC(=O)c1ccc(Nc2cc(Nc3ccccc3S(=O)(=O)C(C)C)c3cc[nH]c3n2)nc1 [HG-5-113-01]; conditions: top dose 10 µM; top dose inferred
Protocol: as §1

[1] = top dose 4 µM, screen: GDSC drug entry 1091, top dose inferred
[2] = top dose 5.12 µM, screen: GDSC drug entry 62
[3] = top dose 5 µM, screen: GDSC drug entry 1017, top dose inferred
[4] = top dose 10 µM, screen: GDSC drug entry 1495

Cell Line | AUC (BMS-536924; [1]) | IC50 (BMS-536924; [1]) | AUC (BMS-536924; [2]) | IC50 (BMS-536924; [2]) | AUC (A-770041) | IC50 (A-770041) | AUC (BIRB 0796) | IC50 (BIRB 0796) | AUC (Olaparib; [3]) | IC50 (Olaparib; [3]) | AUC (Olaparib; [4]) | IC50 (Olaparib; [4]) | AUC (SB-525334) | IC50 (SB-525334) | AUC (Wee1 inhibitor 681640) | IC50 (Wee1 inhibitor 681640) | AUC (CGP-082996 (CINK4)) | IC50 (CGP-082996 (CINK4)) | AUC (VX-702) | IC50 (VX-702) | AUC (Shikonin) | IC50 (Shikonin) | AUC (HG-5-113-01) | IC50 (HG-5-113-01)
MOLT-13 (T-cell lymphoblastic leukaemia, suspension) | 0.966 | > 4 µM | 0.973 | > 5.12 µM | 0.879 | 4.16 µM | 0.989 | > 10 µM | 0.942 | > 5 µM | 0.892 | 9.27 µM | 0.948 | > 20 µM | 0.939 | > 2 µM |  |  |  |  |  |  |  | 
NCI-H23 (lung adenocarcinoma, adherent) | 0.947 | > 4 µM | 0.871 | 4.74 µM | 0.969 | > 5.12 µM | 0.968 | > 10 µM |  |  |  |  | 0.975 | > 20 µM | 0.837 | 1.32 µM | 0.987 | > 5.12 µM | 0.97 | > 2 µM | 0.902 | > 16 µM |  | 
NCI-H322M (lung adenocarcinoma, suspension) | 0.952 | > 4 µM | 0.896 | > 5.12 µM | 0.925 | > 5.12 µM | 0.986 | > 10 µM |  |  |  |  | 0.896 | > 20 µM | 0.965 | > 2 µM | 0.936 | > 5.12 µM | 0.967 | > 2 µM | 0.74 | 5.83 µM |  | 
NCI-H1666 (lung adenocarcinoma, semi-adherent) | 0.764 | 1.58 µM | 0.98 | > 5.12 µM | 0.986 | > 5.12 µM |  |  | 0.941 | > 5 µM | 0.924 | > 10 µM | 0.979 | > 20 µM |  |  | 0.985 | > 5.12 µM | 0.969 | > 2 µM | 0.449 | 0.716 µM |  | 
TE-11 (oesophagus, adherent) | 0.809 | 1.87 µM | 0.371 | 0.146 µM | 0.728 | 1.33 µM | 0.981 | > 10 µM | 0.99 | > 5 µM | 0.973 | > 10 µM | 0.979 | > 20 µM | 0.924 | > 2 µM | 0.926 | > 5.12 µM | 0.989 | > 2 µM | 0.57 | 1.52 µM |  | 
TGBC24TKB (biliary tract, adherent) | 0.739 | 1.14 µM | 0.467 | 0.262 µM | 0.639 | 0.754 µM |  |  |  |  | 0.988 | > 10 µM | 0.98 | > 20 µM |  |  | 0.855 | 3.67 µM |  |  | 0.77 | 5.71 µM |  | 
TT (thyroid, adherent) | 0.822 | 3.64 µM |  |  |  |  | 0.841 | > 10 µM | 0.975 | > 5 µM | 0.954 | > 10 µM | 0.976 | > 20 µM | 0.961 | > 2 µM |  |  | 0.978 | > 2 µM | 0.611 | 2.28 µM | 0.832 | > 10 µM
UACC-62 (melanoma, adherent) | 0.957 | > 4 µM |  |  |  |  | 0.967 | > 10 µM | 0.98 | > 5 µM | 0.953 | > 10 µM | 0.953 | > 20 µM | 0.885 | > 2 µM |  |  | 0.988 | > 2 µM | 0.545 | 1.32 µM | 0.814 | 5.39 µM
UACC-893 (breast, adherent) | 0.975 | > 4 µM |  |  |  |  | 0.95 | > 10 µM | 0.98 | > 5 µM | 0.857 | > 10 µM | 0.931 | > 20 µM | 0.969 | > 2 µM |  |  | 0.982 | > 2 µM | 0.933 | > 16 µM | 0.952 | > 10 µM
VMRC-RCZ (kidney, adherent) | 0.95 | > 4 µM |  |  |  |  | 0.981 | > 10 µM | 0.981 | > 5 µM | 0.972 | > 10 µM | 0.977 | > 20 µM | 0.959 | > 2 µM |  |  | 0.953 | > 2 µM | 0.41 | 0.541 µM | 0.821 | 7.06 µM
WM35 (melanoma, adherent) | 0.792 | 1.82 µM |  |  |  |  | 0.963 | > 10 µM | 0.933 | > 5 µM | 0.949 | > 10 µM | 0.71 | 4.91 µM | 0.813 | 1.09 µM |  |  | 0.975 | > 2 µM | 0.441 | 0.691 µM | 0.824 | 6.01 µM
WM1552C (melanoma, adherent) | 0.915 | > 4 µM |  |  |  |  | 0.978 | > 10 µM | 0.988 | > 5 µM | 0.977 | > 10 µM | 0.983 | > 20 µM | 0.968 | > 2 µM |  |  | 0.988 | > 2 µM | 0.568 | 1.54 µM | 0.815 | 5.52 µM
WM-115 (melanoma, adherent) | 0.98 | > 4 µM |  |  |  |  | 0.982 | > 10 µM | 0.955 | > 5 µM | 0.966 | > 10 µM | 0.754 | 8.15 µM | 0.979 | > 2 µM |  |  | 0.952 | > 2 µM | 0.759 | 6.77 µM | 0.907 | > 10 µM
huH-1 (liver, adherent) | 0.874 | > 4 µM |  |  |  |  | 0.928 | > 10 µM | 0.967 | > 5 µM | 0.939 | > 10 µM | 0.984 | > 20 µM | 0.928 | > 2 µM |  |  | 0.956 | > 2 µM | 0.79 | 9.04 µM | 0.836 | 8.98 µM
